Test results taken from PubChem BioAssay (NCATS).
Records with an inconclusive call do not appear. Calls come from the whole dose curve; tested in HEK293 reporter line. More than one record can exist for a structure, and the calls need not agree. Some entries of the source have several records that differ or are many. The other results are left out here. An entry can have further records. Values that stand side by side are repeated measurements across runs, samples, wells, individuals or studies. What stands in brackets tells the records apart. Letters hold for one entry only.

assay: qHTS for Inhibitors of the Functional Ribonucleoprotein Complex (vRNP) of Lassa (LASV) Arenavirus: Viability assay - alamar blue signal for LASV Primary Screen (AID 1347083); details: cell viability, alamar blue fluorescence (LASV minigenome counter-screen); series mostly up to 57.5 µM
Note: nearly all actives have a fitted effect of over 80% in size.
Potency is the fitted concentration of half-maximal effect.

Row | SMILES | Potency
1 | O=C1N(c2ccccc2)c2ccccc2C1(Cc1ccncc1)Cc1ccncc1 | inactive [sample A] and inactive [sample B] and active: 5.44 µM [sample C]
2 | CCC(=O)O[C@]1(C(=O)CCl)[C@@H](C)C[C@H]2[C@@H]3CCC4=CC(=O)C=C[C@]4(C)[C@@]3(F)[C@@H](O)C[C@@]21C | inactive [sample A] and active: 9.68 µM [sample B]
3 | CCCCC(CC)COC(=O)C(C#N)=C(c1ccccc1)c1ccccc1 (stereo unspecified) | active: 8.63 µM [sample A] and inactive [sample B]
4 | C[C@@H]1C[C@H]2[C@@H]3CCC4=CC(=O)C=C[C@]4(C)[C@@]3(Cl)[C@@H](O)C[C@]2(C)[C@@]1(OC(=O)c1ccco1)C(=O)CCl | inactive [sample A] and active: 21.7 µM [sample B]
5 | O=C(NOCC1CC1)c1ccc(F)c(F)c1Nc1ccc(I)cc1Cl | inactive [sample A] and active: 7.69 µM [sample B]
6 | O=C(Nc1ccc([N+](=O)[O-])cc1Cl)c1cc(Cl)ccc1O | active: 7.08 µM [sample A] and inactive [sample B]
7 | CN1CCC(=C2c3ccccc3CC(=O)c3sccc32)CC1 | inactive [sample A] and active: 27.3 µM [sample B] and inactive [sample C]

assay: qHTS for Inhibitors of the Functional Ribonucleoprotein Complex (vRNP) of Lymphocytic Choriomeningitis Arenaviruses (LCMV): Viability assay - alamar blue signal for LCMV Primary Screen (AID 1347085); details: alamar blue viability counter-screen, LCMV vRNP screen cells; series mostly up to 57.5 µM

Row | SMILES | Potency
8 | O=C1N(c2ccccc2)c2ccccc2C1(Cc1ccncc1)Cc1ccncc1 | inactive [sample A] and inactive [sample B] and active: 7.69 µM [sample C]
9 | O=C(O)c1cccc(-c2noc(-c3ccccc3F)n2)c1 | active: 17.2 µM [sample A] and inactive [sample B]
10 | CCCCC(CC)COC(=O)C(C#N)=C(c1ccccc1)c1ccccc1 (stereo unspecified) | active: 17.2 µM [sample A] and inactive [sample B]
11 | C[C@@H]1C[C@H]2[C@@H]3CCC4=CC(=O)C=C[C@]4(C)[C@@]3(Cl)[C@@H](O)C[C@]2(C)[C@@]1(OC(=O)c1ccco1)C(=O)CCl | inactive [sample A] and active: 12.2 µM [sample B]
